For 87 compounds, survival results are on record in PubChem BioAssay AID463173 (ICCB-Longwood Screening Facility, Harvard Medical School, 2010).

Each structure is given as a SMILES string. The campaign covered roughly 52,000 compounds. About 1,700 (3.3%) were called active. No stated cut-off is given here; in the data, active means survival mostly below about 52% (no sharp cut-off); inactive means mostly above about 56%. Some of the results follow.

The assay deals with Wild type. The assay can be described thus: growth inhibition of S. aureus wild type versus tarO mutant, primary screen, teichoic acid synthesis inhibitors, RN4220, OD600 (AID 463173). The note with it: S. aureus RN4220 wild type/DeltatarO growth, OD600, 18 h, hits give low values, screened at 18.75 µg/mL (by protocol).
With `Cc1cc2cc(CN(Cc3ccccc3)C(=O)N(C)C)c3nnnn3c2cc1C`, the survival is inactive: 106%.

Turning to `O=C(CC1Nc2cccc3cccc(c23)NC1=O)Nc1ccc(F)cc1` (configuration not stated), the survival is inactive: 112%.

With `COc1cccc(N2CCN(Cc3cc(=O)oc4cc(C)ccc34)CC2)c1`, the survival was inactive: 77%.

For the compound `Cc1ccc2c(c1)C(c1ccc(F)cc1)N(C(=O)c1cccc(C(F)(F)F)c1)CC(=O)N2` (configuration not stated), the survival was inactive: 79%.

In the case of `CC(C)OCCCN1C(=O)c2[nH]nc(-c3ccccc3O)c2C1c1cccc(OCc2ccccc2)c1` (configuration not stated), the survival is inactive: 78%.

With `N#Cc1cccc(NC(=O)CCNS(=O)(=O)c2ccc3c(c2)CCN3C(=O)C2CC2)c1`, the survival was inactive: 105%.

Turning to `Cc1c2cnn(CC(=O)N3CCN(c4ccc(F)cc4)CC3)c(=O)c2c(C)n1Cc1ccccc1F`, the survival is inactive: 92%.

As for `O=C(Nc1nnc(S(=O)(=O)N2CCc3ccccc32)s1)c1ccccc1Cl`, the survival was inactive: 23%.

Take `CCOC(=O)c1c(C)[nH]c(CCC(=O)NCCCN2CCN(c3ccccc3F)CC2)c1C`: the survival is inactive: 68%.

As for `COc1ccc(-c2nc(Cn3c(=O)cc(C)c4c(C)nn(-c5ccccc5)c43)c(C)o2)c(OC)c1`, the survival was inactive: 73%.

In the case of `CN(C)c1ccc(CNC(=O)Cn2ccc3cc(S(=O)(=O)N4CCCCCC4)ccc32)cc1`, the survival is inactive: 85%.

Take `Cc1cc(C)cc(-n2ccnc2SCC(=O)Nc2nc3ccc(C)cc3s2)c1`: the survival was inactive: 64%.

As for `CCC1CN(C(=O)N2CCC(C(=O)NCCC3=CCCCC3)CC2)c2cc(C)ccc2O1` (configuration not stated), the survival is inactive: 89%.

Take `COc1ccc2cc(CN(Cc3cccnc3)Cc3nnnn3Cc3ccc(F)cc3)c(=O)[nH]c2c1`: the survival was inactive: 106%.

As for `Cc1cccc(OCC(=O)Nc2ccc(-c3nc4cc(C)ccc4o3)c(O)c2)c1`, the survival was inactive: 70%.

Take `COc1ccc(S(=O)(=O)N(CC(=O)N(C)Cc2ccccc2)c2ccc(Cl)cc2)cc1`: the survival was inactive: 77%.

Consider `Cc1ccc(OCC(=O)Nc2ccc(Cl)c(-c3nc4ccccc4[nH]3)c2)cc1C`, for which the survival is inactive: 66%.

For the compound `CCn1cc2nc(SCc3ccc(C)cc3)n(CCc3ccccc3)c(=O)c2n1`, the survival is inactive: 68%.

Take `COc1ccc(NC(=O)CSc2nnc(NC(=O)Nc3ccccc3)s2)c(OC)c1`: the survival is inactive: 60%.

For `CCc1ccc(NC(=O)CSc2nc3ccccc3nc2Cc2ccccc2OC)cc1`, the survival is inactive: 82%.

As for `C=CCNc1ccc(C(=O)O)cc1`, the survival is inactive: 109%.

As for `CCOC(=O)c1ccc(NC(=O)c2c(NCc3sccc3C)sc3c2CCCCC3)cc1`, the survival was inactive: 85%.

`O=C(NC1CCCCC1)c1c[nH]c2ccc(S(=O)(=O)Nc3ccccc3F)cc2c1=O`: the survival is inactive: 102%.

As to `Cc1cc(C)cc(NC(=O)N2CCN3CCCCC3C2)c1` (configuration not stated), the survival was inactive: 135%.

As for `COc1ccc(Cn2c(=O)[nH]c3cc(C(=O)N4CCN(c5cccc(OC)c5)CC4)ccc3c2=O)cc1`, the survival was inactive: 63%.

Regarding `CC1CCCN(c2cc3c(cc2F)c(=O)c(S(=O)(=O)c2cccc(Cl)c2)cn3C)C1` (configuration not stated), the survival is inactive: 63%.

Turning to `Cn1cc(C(=O)NCc2ccc(Cl)cc2)c(=O)c2cc(S(=O)(=O)N3CCCCCC3)ccc21`, the survival was inactive: 73%.

For the compound `COc1ccc(CNC(=O)CSc2nc3cc4c(cc3cc2C#N)OCCO4)cc1`, the survival was inactive: 100%.

In the case of `COc1ccccc1-c1nnc(SCC(=O)OC(C)C)n1-c1ccccc1`, the survival is inactive: 115%.

Consider `COc1cccc(C(=O)Nc2cc3cc(OC)ccc3oc2=O)c1`, for which the survival is inactive: 78%.

As for `Cc1cc(C)c2c(n1)SCCN2C(=O)Nc1ccc(C(=O)Nc2cc(Cl)ccc2C)cc1`, the survival is inactive: 99%.

Consider `Cc1cc(C(=O)NCCc2ccc(Cl)cc2)c2c(C)nn(-c3cccc(F)c3)c2n1`, for which the survival is inactive: 76%.

For `O=C1C2C(C(=O)N1/N=C/c1ccc(N3CCCCC3)o1)C1C=CC2C12CC2` (configuration not stated), the survival is inactive: 103%.

In the case of `COc1ccc(N(CC(=O)NCCc2cccc(C)c2)S(=O)(=O)c2c(C)noc2C)cc1`, the survival was inactive: 81%.

In the case of `O=C(Nc1ccccc1)c1ccc2c(c1)OCCO2`, the survival was inactive: 110%.

As to `COC(=O)c1cc2sc(Cl)cc2n1Cc1nc(-c2ccc(OC)cc2)oc1C`, the survival was inactive: 47%.

With `O=C(Nc1nnc(S(=O)(=O)N2CCN(c3ccc(F)cc3)CC2)s1)c1ccc(Cl)cc1`, the survival is inactive: 80%.

In the case of `COc1ccc(C)cc1NC(=O)C(=O)NCC1(c2ccccc2)CCCC1`, the survival was inactive: 94%.

For `Cc1ccc(Cl)cc1NC(=O)COCc1cc(-c2ccco2)on1`, the survival was inactive: 77%.

In the case of `CCCCSCCCNC(=O)CN1C(=O)COc2ccc(S(=O)(=O)N3CCC(C)CC3)cc21`, the survival was inactive: 122%.

For the compound `Cn1cc(C(F)(F)F)ccc1=S`, the survival was inactive: 112%.

Turning to `CC(C)(C)c1ccc(C2NC(=O)c3n[nH]c(-c4cccs4)c32)cc1` (configuration not stated), the survival is inactive: 93%.

Consider `Cc1ccc(C(=O)Nc2ccc(C(=O)OCc3cc(=O)n4ccsc4n3)cc2)cc1`, for which the survival is inactive: 75%.

For `Cc1ccc(Cn2cc(CCC(=O)NCc3ccccc3F)c3ccccc32)cc1`, the survival is inactive: 83%.

In the case of `CCN(CC)S(=O)(=O)c1ccc2c(c1)N(CC(=O)N(C)Cc1ccccc1)C(=O)CO2`, the survival is inactive: 85%.

On to `Cc1ccc(NC(=O)Cn2c(CCC(=O)O)ccc2-c2ccc(Cl)cc2)cc1`, for which the survival was inactive: 86%.

As to `COc1ccccc1N1CCN(c2ncnc3c2nc2n3CCCC2)CC1`, the survival was inactive: 71%.

Take `COC(=O)c1ccc(NC(=O)Cn2nc(C(=O)Nc3ccc(C)cc3)ccc2=O)cc1`: the survival is inactive: 85%.

Take `COc1ccc(-c2[nH]c3c(c2-c2c(-n4cccc4)n(C)c(=O)n(C)c2=O)c(=O)n(C)c(=O)n3C)cc1`: the survival is inactive: 86%.

Consider `O=C(CNC(=O)c1ccc(Cl)cc1)OCc1cc(=O)n2ccsc2n1`, for which the survival was inactive: 71%.

Take `COc1ccc(O)c(C2Nc3ccccc3-n3c(-c4ccccc4)c4c(=O)n(C)c(=O)n(C)c4c32)c1` (configuration not stated): the survival is active: -6%.

Consider `c1cc2c3c(cccc3c1)NC1(CCCCC1)N2`, for which the survival is inactive: 125%.

Take `COc1cccc(CNC(=O)C(NS(=O)(=O)c2ccc3c(c2)oc(=O)n3C)C(C)C)c1` (configuration not stated): the survival was inactive: 76%.

In the case of `Cc1cccc(NC(=O)CSc2nc(C3CCCC3)nc3c2c(=O)n(C)c(=O)n3C)c1C`, the survival is inactive: 93%.

On to `Cc1nnsc1C(=O)Oc1ccc(C(C)C)cc1`, for which the survival is inactive: 79%.

For `Cc1c(C(=O)OCC2CCCCC2)[nH]c2c1C(=O)CC(c1ccc(Cl)cc1)C2` (configuration not stated), the survival was inactive: 86%.

As for `COc1ccc(S(=O)(=O)Nc2cccc(-c3ccc(N4CCCCCC4)nn3)c2)cc1`, the survival was inactive: 68%.

Turning to `NS(=O)(=O)c1ccc(Nc2nc3nonc3nc2Nc2ccc(S(N)(=O)=O)cc2)cc1`, the survival is inactive: 109%.

Regarding `CCn1c(=O)cc(OCC(=O)NCc2ccccc2Cl)c2ccccc21`, the survival was inactive: 63%.

Consider `COc1ccc2c(c1)-c1nc(NC(=O)c3ccccc3F)sc1CC2`, for which the survival was active: -1%.

Consider `CCN(CC)C(=O)c1sc2c(c1C)c(=O)n(-c1ccc(C)c(C)c1)c(=O)n2Cc1cc(=O)n2c(C)cccc2n1`, for which the survival was inactive: 22%.

For the compound `CCn1c(-c2ccccc2)n[nH]c1=S`, the survival was inactive: 108%.

Consider `O=C(NCC1CCCO1)c1cc2ccccc2oc1=O` (configuration not stated), for which the survival is inactive: 94%.

`COc1ccc(CNC(=O)CSc2ncc3c(n2)-c2cc(Cl)ccc2N(Cc2ccccc2)S3(=O)=O)cc1OC`: the survival was inactive: 66%.

Regarding `Cc1nnc(SCc2nc(-c3ccc(Cl)cc3)no2)n1-c1ccc(F)cc1`, the survival was inactive: 100%.

Take `COc1ccccc1NC(=O)Cn1c(=O)n(CCc2ccccc2)c(=O)c2c3c(sc21)CN(C(C)=O)CC3`: the survival is inactive: 76%.

For `O=C(c1ccccc1)n1nc(-c2ccco2)nc1NCc1cccs1`, the survival was inactive: 90%.

Turning to `Cc1ccc(Cn2cc(/C=C(/C#N)C(=O)Nc3cccc(Cl)c3)c3ccccc32)cc1`, the survival is inactive: 89%.

For the compound `COc1cc2ccccc2cc1C(=O)Nc1cc(-c2nc3ccccc3o2)ccc1C`, the survival was inactive: 126%.

For `Cc1cccc(N(C)C(=O)CN(C)S(=O)(=O)c2ccc3[nH]c4c(c3c2)CCCC4)c1`, the survival was inactive: 72%.

In the case of `O=c1cc(-c2ccccc2)nc2cc(-c3ccc(F)cc3)[nH]n12`, the survival is inactive: 148%.

Turning to `Cc1ccc(S(=O)(=O)N2CCc3cc(C(=O)Nc4ccc(C)c(C)c4)ccc32)cc1`, the survival was inactive: 81%.

`CCOc1ccc(CN(Cc2ccco2)C(c2ccc(C(F)(F)F)cc2)c2nnnn2CCOC)cc1` (configuration not stated): the survival was inactive: 128%.

In the case of `CCC(=O)OCc1cnc(C)c2oc(=O)c(C(=O)Nc3ccccc3C(F)(F)F)cc12`, the survival was inactive: 136%.

On to `CCCCNc1nc(Oc2ccc(OCCC)nn2)nc(N(C)C)n1`, for which the survival is inactive: 87%.

As to `COc1ccc(CC(=O)Nc2c(C(=O)Nc3ccc(F)cc3)oc3ccccc23)cc1OC`, the survival is inactive: 95%.

In the case of `COc1ccc(OC)c(CCNC(=O)CN2C(=O)COc3ccc(S(=O)(=O)N4CCC(C)CC4)cc32)c1`, the survival is inactive: 72%.

`COc1ccc(-c2nc3ccccc3o2)cc1NC(=O)CSc1ccc(Cl)cc1`: the survival was inactive: 73%.

For the compound `O=C(CCSCc1ccccc1F)N1CCN(c2ccc(Cl)cc2)CC1`, the survival was inactive: 55%.

For the compound `Cc1nn(-c2ccc(N3CCCC3)nn2)c(C)c1CCC(=O)NCc1ccccc1F`, the survival was inactive: 85%.

Consider `CCC1CCCCN1CCCNC(=O)c1c(O)nc2c(C)cccn2c1=O` (configuration not stated), for which the survival is inactive: 88%.

On to `CCCN1CCN(CCNC(=O)Nc2cc(C)ccc2OC)CC1`, for which the survival is inactive: 87%.

For `COc1cc2c(C(=O)Nc3ccc(C)cc3Br)cn(C)c(=O)c2cc1OC`, the survival was inactive: 124%.

As to `CCOC(=O)c1ccc(NC2=CC(c3ccc(O)c(OCC)c3)N(c3ccc(C(=O)OCC)cc3)C2=O)cc1` (configuration not stated), the survival was inactive: 68%.

As to `CCOc1ccccc1NC(=O)c1sc2nc(-c3ccc(OC)cc3)ccc2c1N`, the survival was inactive: 81%.

Regarding `COc1ccc(-n2c(/C=C/c3cccc4ccccc34)nc3ccccc3c2=O)cc1Cl`, the survival was inactive: 83%.

As to `O=C(Cc1ccc(F)cc1)N1CCC(c2nc3c(nnn3Cc3ccc(F)cc3)c(=O)[nH]2)CC1`, the survival was inactive: 99%.
